Measured values published in PubChem BioAssay AID504832 (National Center for Advancing Translational Sciences (NCATS), 2011).
The campaign covered roughly 310,000 compounds. About 18,000 (5.8%) were called active. Inconclusive means that the source gave no clear call. Such entries were picked first, then a sample of the others. Calls come from the whole dose curve; as a rule, active = well fitted inhibition curve with a large enough effect; inconclusive = small, poorly fitted or top-dose-only effect, or another doubt; inactive = no such curve, though single readings can be large or run the other way. No potency is given beside an inconclusive call; the fits are too rough.

test: Primary qHTS for delayed death inhibitors of the malarial parasite plastid, 48 hour incubation; conditions: P. falciparum luciferase growth in erythrocytes; series mostly up to 28.7 µM; activity change, negative = inhibition: at the top concentration
Summary of the method: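 Growth was read as firefly luciferase luminescence after a 48 h, 37 C, 5% CO2 exposure of compounds to reporter-bearing P. falciparum cultures (0.1% parasitemia, 2% hematocrit final) in Albumax-supplemented RPMI 1640.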
% is set by controls: 0 for no effect and ±100 for the full control effect; potency is the fitted concentration of half-maximal effect; tags give direction and shape of the fitted curve.

Structure (SMILES) | Potency | activity change, negative = inhibition
CCN(Cc1cc2cc(OC)ccc2[nH]c1=O)C(=O)Cc1ccc(OC)cc1 | inconclusive [inhibitor, single point] | 
O=C1CC(=O)N2N=C(c3ccc([N+](=O)[O-])cc3)SC2=N1 | inconclusive [inhibitor, single point] | 
COc1cccc(Cn2c(Oc3ccccc3)nc3c2c(=O)n(C)c(=O)n3C)c1 | active: 0.657 µM | 
COc1cc(NC(=O)c2ccccc2)c(OC)cc1NC(=O)CN1C(=O)N(C)C2(CCCCC2)C1=O | inconclusive [inhibitor, single point] | 
CC(=O)N(c1nc(CCl)cs1)c1cccc(C)c1C |  | inactive: -37.3% [at 1.15 µM]
O=C(O)c1ccc(/C=N/Nc2nnnn2-c2ccccc2)cc1 |  | inactive: 7.4%
COc1ccc(OCC(=O)Nc2ccc(NC(=O)c3ccco3)c(C)c2)cc1 | inconclusive [inhibitor, single point] | 
Cc1cc(C)n(-c2ccc(C(=O)NCC(c3ccco3)N3CCCC3)cc2)n1 (centres undefined) | inconclusive [inhibitor, single point] | 
c1ccc(-n2ncc3c2ncn2nc(-c4ccco4)nc32)cc1 |  | inactive: 112%
O=C(N/N=C/c1sc(=O)n(-c2ccccc2)c1Cl)c1ccncc1 | inconclusive [inhibitor, single point] | 
Cc1cc(-c2ccccc2)n2nc(N)nc2n1 |  | inactive: 17.4%
Cc1nn(Cc2ccccc2)c(C)c1CNC(=O)c1ccc(F)c(S(=O)(=O)N2CCOCC2)c1 | inconclusive [inhibitor, single point] | 
O=c1c2cc(NC(=S)NC3CCN(Cc4ccccc4)CC3)ccc2nc2n1CCCCC2 | inconclusive [inhibitor, partial curve] | 
COc1cccc(C(C(=O)NC(C)(C)C)N(Cc2ccc(C)cc2)C(=O)CCC(=O)Nc2cc(C)on2)c1OC (centres undefined) | inconclusive [inhibitor, full curve] | 
Cc1ccc(C(=O)NNC(=O)CSc2nnc(-c3ccccc3)n2Cc2ccccc2)cc1 |  | inactive: -6.74%
Cc1cc(NC(=O)COC(=O)[C@H](Cc2c[nH]c3ccccc23)NC(=O)c2ccc(F)cc2)no1 |  | inactive: 67%
COC(=O)C/C=C/[C@@H](C)[C@@H](/C=N/O[C@H](C)c1cn([C@@H]2COC[C@H]2O)nn1)NS(=O)(=O)c1ccc(C)cc1 | inconclusive [inhibitor, partial curve, poor fit] | 
O=C(NCC(c1ccco1)N1CCc2ccccc2C1)c1cccc(Br)c1 (centres undefined) |  | inactive: -14.3%
CCCc1cc(=O)oc2c(C)c(OCC(=O)Nc3ccc(CN4CCOCC4)cc3)ccc12 | inconclusive [inhibitor, partial curve] | 
COC(=O)c1ccccc1NC(=S)NC(C)=O |  | inactive: 15.8%
CCc1ccc(NC(=O)C(C)Sc2ccc(S(=O)(=O)N3CCN(C)CC3)cn2)cc1 (centres undefined) | inconclusive [inhibitor, single point] | 
COc1cc(-c2cc(-c3ccccc3)nc(SCC(=O)O)c2C#N)cc(OC)c1OC | inconclusive [inhibitor, partial curve, poor fit] | 

Structure (SMILES) | Potency | activity change, negative = inhibition
COc1ccccc1C(=O)NCC(=O)N1CCN(S(=O)(=O)c2ccc3c(c2)OCCO3)CC1 | inconclusive [inhibitor, single point] | 
COc1cccc(CN(C)C(=O)CSCC(=O)Nc2cccc(C)c2)c1OC | inconclusive [inhibitor, single point] | 
Cc1cccc(/C(N)=N/OC(=O)c2ccc(Cl)cc2Cl)c1 |  | inactive: 191%
O=C(NCCO)c1cc([N+](=O)[O-])cc2c1C=Cc1ccccc1O2 | inconclusive [inhibitor, single point] | 
O=C(NCc1ccc(C(F)(F)F)cc1)C1CC(c2c(Cl)cccc2Cl)=NO1 (centres undefined) | inconclusive [inhibitor, single point] | 
CCOCc1nnc(NC(=O)c2ccc(OC)cc2)s1 |  | inactive: 106%
O=C(COc1cc(O)c2c(=O)cc(-c3ccccc3)oc2c1)c1ccccc1 |  | inactive: 39.9%
COc1ccccc1CNC(=O)C1CC2Cn3c(nc4cc(C)c(C)cc43)C2N1C (centres undefined) | inconclusive [inhibitor, single point] | 
COc1ccc(C)cc1S(=O)(=O)NCC(c1cccnc1)N1CCc2ccccc2C1 (centres undefined) | inconclusive [inhibitor, partial curve] | 
Cc1cc(C)cc(NC(=O)C(OC(=O)c2ccc(NC(=O)CC#N)cc2)c2ccccc2)c1 (centres undefined) | active: 10.4 µM | 
COc1cc2[nH]c3c(N4CCN(c5ccc(Cl)cc5)CC4)ncnc3c2cc1OC | active: 4.15 µM | 
Cc1ccc(NC(=S)N(CCN2CCOCC2)Cc2cc3cc4c(cc3[nH]c2=O)OCCO4)cc1 | inconclusive [inhibitor, partial curve] | 
CCN(CC)CCCNC(=O)c1cn(CCOC)c(=O)c2c1c1ccccc1n2C | inconclusive [inhibitor, partial curve] | 
O=C(CN1C(=O)C2CC=CCC2C1=O)Nc1nc2ccccc2[nH]1 (centres undefined) |  | inactive: 9.82%
CC(=C/c1ccc(C(C)C)cc1)/C=N/NC(=O)c1ccncc1 | active: 13.1 µM | 
CN(CCOc1ccc(Cl)cc1)C(=O)c1cc([N+](=O)[O-])ccc1N1CCOCC1 |  | inactive: -11.4%
O=[N+]([O-])c1ccc(S(=O)(=O)N2CCN(Cc3ccco3)CC2)cc1 |  | inactive: 12.3%
O=C(CN1CCN(S(=O)(=O)c2ccc(C(F)(F)F)cc2)CC1)N1CCNC1=O |  | inactive: -16.8%
Clc1ccc(Cn2ncc3c(NCc4ccco4)ncnc32)c(Cl)c1 | inconclusive [inhibitor, partial curve] | 
COc1cc2cnc(-c3ccsc3)c(-c3ccc(F)cc3)c2cc1OC | inconclusive [inhibitor, single point] | 
CCOc1cccc(C(=O)Nc2ccc3oc(-c4cccnc4)nc3c2)c1 | inconclusive [inhibitor, single point] | 
CCC(C)(C)NC(=O)C(c1ccc(OC)cc1)N(C(=O)CCC(=O)Nc1cc(C)on1)c1cccc(F)c1 (centres undefined) | inconclusive [inhibitor, single point] | 
